To fix the notation:
T1: UNK ZnF1-3 (human, UniProt Q9C0B0 31-174)
T1 sequence: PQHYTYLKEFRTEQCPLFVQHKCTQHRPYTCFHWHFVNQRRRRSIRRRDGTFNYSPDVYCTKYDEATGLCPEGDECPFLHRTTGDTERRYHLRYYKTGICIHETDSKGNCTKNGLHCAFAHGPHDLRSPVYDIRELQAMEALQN

B1: chr2:44428564:44428565:+_ENSG00000138032_ENST00000378551|hu_mus|FALSE|FALSE (ssRNA)
RNA: GGGAGUUCUACAGUCCGACGAUCGAGAGCAGAGCCUGAUUUGUCAGCUGCCCUGAAGUCUUCAUUGGUGGUGAUGUGUUCUAAUAGAUGUGUUGAACAGUAAUUUGCCACUCGGGAUCCAGCAUGACCGUCAUAAACUGCAAACAACAGAGGAUUGAGCAUCA
B2: chr5:147795600:147795601:+_ENSG00000145868_ENST00000340253|hu_hu|FALSE|FALSE (ssRNA)
RNA: GGGAGUUCUACAGUCCGACGAUCACUCAGACCAACUCGAGCACAACCCUUGGGUGGUUCACGAAACAUCUGAUCCAGUGAAAUAAACUCUAGGCUGGGUAAUAAUUCAAUAAACUGGCCAAAAGAGUCCAGCUUCAAAGCAUGCAACAGAGGAUUGAGCAUCA
B3: 57075034_57075154_704_CDS_ENSG00000112210_ENST00000317483|human|control|control (ssRNA)
RNA: GGGAGUUCUACAGUCCGACGAUCCUCCAAAAAAUCAACUCCAAUGGUUUUCUUGUAGUCUUUUGUAAAAAUGCCUUUGCAAUAUCGCUGAAUCAUACUUGAUUUUCCAACUGCUCCAUUCCCUACAACCACCAUCUUUAUGGCCAACAGAGGAUUGAGCAUCA
B4: chr11:85023558:85023559:-_ENSMUSG00000018481_ENSMUST00000018625|mus_hu|FALSE|FALSE (ssRNA)
RNA: GGGAGUUCUACAGUCCGACGAUCGCCAUGUUUUGAUAGUUUAUCCAUAUAUGUCUGAGCUAAUUUAAAUGUUUCUUCACCCAAAUGAUAUUUGCAGUUUCCAUUUCGCACAUGAAGCAACCUCACACAACAUUCUACUGCACGCAACAGAGGAUUGAGCAUCA
B5: chr1:80268134:80268135:-_ENSMUSG00000004364_ENSMUST00000163119|mus_hu|motif|central (ssRNA)
RNA: GGGAGUUCUACAGUCCGACGAUCGACUCUGUGUAGUUUGGAUGUGAAUUGAUCAUUAACUGUAAAUAUAUGACCAUUUUCGGUUUCCUUUGAUUUGGGUUCUUUUGUAAGAACCCGCUGUGUUGGUUUACCACAGGCGAGGGACAACAGAGGAUUGAGCAUCA
B6: chr17:72205386:72205387:+_ENSG00000172809_ENST00000584577|hu_mus|FALSE|FALSE (ssRNA)
RNA: GGGAGUUCUACAGUCCGACGAUCGGGUAGGGACUGCUUCAGCUUCUCUGCCUUUUCCUUGUCUGUGAUAACCAGGGUGUAAAGGUACCUGCUGCAGCGAACCUUGAACUUCACAUUAUCCUUGUUCUUCUUGAUCUUGACAGACAACAGAGGAUUGAGCAUCA
B7: chr2:179515052:179515053:+_ENSMUSG00000000305_ENSMUST00000000314|mus_hu|mus_mus_mus_hu_False|1_98 (ssRNA)
RNA: GGGAGUUCUACAGUCCGACGAUCGCUGUCCCAUGCAGUGACGGUAAACGCCACCUGCUCGGAGGGGACCUGCAGCUCCCGGGUGGCGAAGACUGUCCCAUCUGCCCCAACUUUGAAGUCCAUGCUGUUGGUCUCAUACUGCAUCAACAGAGGAUUGAGCAUCA
B8: 173934343_173934463_2385_3pUTR_ENSMUSG00000026556_ENSMUST00000027837|mouse|control|control (ssRNA)
RNA: GGGAGUUCUACAGUCCGACGAUCGCUCAGGAGGCAAGGGUAGAAUCCGGAAGGCCCUGAAUGCUUCCAUCCAGGGAAGGUUUGCGGGGGAAGAAUGGGGUGGGGGGAUGGGAGAGUUGUGAGGCACUGUUUCCUGCAGGGCCUCAACAGAGGAUUGAGCAUCA
B9: chr13:31725248:31725249:-_ENSG00000120694_ENST00000320027|perfect_dup|motif|central (ssRNA)
RNA: GGGAGUUCUACAGUCCGACGAUCUUUGGAUUUUGCAUCCAACUUGUACUUAGUUUUAAAUUCUGCACAAAAAUGUUCCACGGACUUUUCAUCGAAGUUUUUUCCUCCUAAGAAAGGAUCAAAAGCUGUUCCCAGUACCUUCAACAACAGAGGAUUGAGCAUCA
B10: 21568532_21576724_3879_CDS_ENSMUSG00000033653_ENSMUST00000117598|mouse|control|control (ssRNA)
RNA: GGGAGUUCUACAGUCCGACGAUCGAGGCUGGCUGUUGUUUCUAGCAAGGUUUGCUCAUAGUUGAAGGUGUCCAGCAUCCCCAGAAUAAGGCCCUGGAUUUCUCCAAGCUUUCCUUUUCCAUAAAUUGGGUCCUGCAAGAUUCUCAACAGAGGAUUGAGCAUCA
B11: chr7:135333399:135333400:+_ENSG00000155561_ENST00000285968|hu_mus|FALSE|FALSE (ssRNA)
RNA: GGGAGUUCUACAGUCCGACGAUCGUCCAUAUAUAAAGAAAGAAAUAGCAAAAUAUCUUUUGGUCAUAAUUUAGAAAUAAAGUCAUCUAUAAAAAAGAGGUGGUUCUCCUCAGUUCAUCUCUUCCACGGAAGAGAGUCAGUUCUCAACAGAGGAUUGAGCAUCA
B12: chr11:97639285:97639286:-_ENSMUSG00000071415_ENSMUST00000103146|mus_mus|FALSE|FALSE (ssRNA)
RNA: GGGAGUUCUACAGUCCGACGAUCCUUUACUUAACCUGGAAAGUGAAGAAGUUCUGCAAGGUCAUGAAGGUCAUGCCCUGAACUGAAAUUUAAGUUUCCUUCUGCAAAGCUGAUAUUGGAAAAGGUGUCAAGAAGACCAGCUCUCAACAGAGGAUUGAGCAUCA
B13: 138010474_138010594_306_5pUTR_ENSMUSG00000046447_ENSMUST00000050918|mouse|control|control (ssRNA)
RNA: GGGAGUUCUACAGUCCGACGAUCGGGGAGGAAACCCGGAGGGAGGGAGGGAGGGAGGGAAGAAACCGAGAGGGCGACGGGGAGAAAAACAGAAAGACAGAAGAAGGCAAGGGGAGCGGCGGGAGGAGGGAGGGUGAGGAAGGACAACAGAGGAUUGAGCAUCA
B14: chr5:173380165:173380166:+_ENSG00000113742_ENST00000334035|hu_mus|FALSE|FALSE (ssRNA)
RNA: GGGAGUUCUACAGUCCGACGAUCCACCCGUUUAUCUAUCUCUCCAUGCUGCAGCUGAACAAAGCGGGCACUGAUAGCAGCUAUGUAACUCUGUUGAUUAGAAAACGCGACUCUUCCAGCUCCUUUUGGGUAUUUGAGCUCUGGCAACAGAGGAUUGAGCAUCA

The list shows a part of the results.

The target in the assay is T1, UNK ZnF1-3. Nature of the assay: nsRBNS (natural sequence RNA bind-n-seq); RBNS binding buffer (assumed for nsRBNS): 25 mM Tris pH 7.5, 150 mM KCl, 3 mM MgCl2, 0.01% Triton X-100, 500 ug/ml BSA, 20 U/ml SUPERase-In, 4 C; UNK is unkempt and MSI1 is Musashi-1; names of the RNAs are library labels; protein concentration not given here; high values mean tight binding.
B1 registered a binding signal of 1.12 enrichment R. As for B2, the binding signal was found to be 1.11 enrichment R. B3 showed a binding signal of 0.575 enrichment R. With B4 the figure was 1.12 enrichment R; with B5, 0.438 enrichment R; with B6, 0.413 enrichment R. As for B7, the binding signal amounted to 0.761 enrichment R. With B8 the figure was 1.47 enrichment R. As to B9, the binding signal is 1.17 enrichment R. Consider B10, for which the binding signal was found to be 0.562 enrichment R. On to B11, for which the binding signal was found to be 1.73 enrichment R.

Regarding B12, the binding signal is 1.54 enrichment R. Then B13, with 1.89 enrichment R; and B14, with 0.726 enrichment R.
